Sequences with one replicate were seen in a single cluster, so their values are uncertain.
The sequences below were run on ATP (assay: switch fluorescence ratio, 500 uM ATP over buffer (Cy3 cluster intensity, sum of 5 cycles each) (fold (ratio)); higher = stronger signal-on switching upon ATP binding; sequences stand for … in TCGTCGGCAGCGTCAGATGTGTATAAGAGACAGTTTTTTTTTTTTTTTTTTTTTTTTT…TC). Settings: aptamer strand: ATP DNA aptamer (quencher-CACCTGGGGGAGTATTGCGGAGGAAGG + anchor), 100 nM annealed; ATP concentration: 500 uM; one replicate.
Method in brief: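 Clusters with intensities outside 100-1000 RFU were excluded. The remaining Cy3-labelled switching-strand clusters on a modified Illumina MiSeq flow-cell had been annealed to 100 nM quencher-labelled ATP aptamer and imaged in selection buffer, then after 15 min with 500 uM ATP at 22 °C, for five cycles separated by NaOH stripping and re-annealing. The fluorescence ratio, averaged per switch-domain sequence, is each cluster's summed target-cycle Cy3 intensity over its summed buffer-cycle Cy3 intensity.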
CTCAACATTT showed a switch fluorescence ratio of 0.975.
CTCAACGTAC was tested, and the switch fluorescence ratio was 1.8.
Work on CTCAAGAGA yielded a switch fluorescence ratio of 1.08.
CTCAAGGAGA was tested, and the switch fluorescence ratio was 1.02.
In the case of CTCAATGGTT, the switch fluorescence ratio is reported as 1.01.
In the case of CTCACAACGC, the switch fluorescence ratio is reported as 1.37.
CTCACAACGG showed a switch fluorescence ratio of 1.02.
CTCACAATGG was tested, and the switch fluorescence ratio was 2.79.
With CTCACATTGG the switch fluorescence ratio was 1.06.
Sequence CTCACCTTTC has a switch fluorescence ratio of 1.95.
Sequence CTCACGATAT has a switch fluorescence ratio of 1.34.
CTCAGAAATG showed a switch fluorescence ratio of 1.09.
For CTCAGCATGT, the switch fluorescence ratio was 1.74.
Sequence CTCAGCCGCG has a switch fluorescence ratio of 1.04.
CTCAGCGTCC showed a switch fluorescence ratio of 1.31.
Sequence CTCAGGGCGC has a switch fluorescence ratio of 1.
Work on CTCAGGTATA yielded a switch fluorescence ratio of 1.03.
In the case of CTCAGGTCCG, the switch fluorescence ratio is reported as 0.99.
In the case of CTCAGGTTAC, the switch fluorescence ratio is reported as 1.67.
CTCAGTTTCC gave a switch fluorescence ratio of 1.04.
Work on CTCATAGGCA yielded a switch fluorescence ratio of 0.971.
CTCATAGTCT was tested, and the switch fluorescence ratio was 1.01.
With CTCATATCAA the switch fluorescence ratio was 0.992.
In the case of CTCATCGGGA, the switch fluorescence ratio is reported as 1.01.
For CTCATGCATC, the switch fluorescence ratio was 2.54.
With CTCATGTCGG the switch fluorescence ratio was 1.01.
In the case of CTCCAAAGGG, the switch fluorescence ratio is reported as 1.04.
Sequence CTCCACACGT has a switch fluorescence ratio of 1.31.
CTCCACCAAG showed a switch fluorescence ratio of 2.16.
Sequence CTCCACCGGT has a switch fluorescence ratio of 1.55.
Sequence CTCCAGGCTA has a switch fluorescence ratio of 2.32.
CTCCAGTAGG showed a switch fluorescence ratio of 1.15.
For CTCCAGTGCC, the switch fluorescence ratio was 1.49.
For CTCCATGCGG, the switch fluorescence ratio was 1.04.
In the case of CTCCCCGAT, the switch fluorescence ratio is reported as 1.71.
CTCCCCTGCT gave a switch fluorescence ratio of 1.14.
In the case of CTCCCGGGTC, the switch fluorescence ratio is reported as 1.29.
Sequence CTCCGACCT has a switch fluorescence ratio of 1.85.
For CTCCGGCCAG, the switch fluorescence ratio was 1.71.
Work on CTCCTACC yielded a switch fluorescence ratio of 1.32.
Sequence CTCCTATATG has a switch fluorescence ratio of 1.09.
With CTCCTCATCC the switch fluorescence ratio was 2.31.
CTCCTGAAT gave a switch fluorescence ratio of 1.11.
CTCCTGCGTA showed a switch fluorescence ratio of 2.21.
In the case of CTCCTTAGCA, the switch fluorescence ratio is reported as 1.26.
CTCCTTAGTA was tested, and the switch fluorescence ratio was 1.03.
CTCCTTCTGT was tested, and the switch fluorescence ratio was 1.01.
CTCGAAGGGA gave a switch fluorescence ratio of 1.02.
Work on CTCGATGGAC yielded a switch fluorescence ratio of 1.07.
In the case of CTCGATTCAT, the switch fluorescence ratio is reported as 1.01.
CTCGCAGAGT was tested, and the switch fluorescence ratio was 1.02.
Work on CTCGCGCCTG yielded a switch fluorescence ratio of 0.978.
CTCGCGGTTA gave a switch fluorescence ratio of 1.02.
Sequence CTCGGACTGT has a switch fluorescence ratio of 1.03.
Work on CTCGGAGGAC yielded a switch fluorescence ratio of 1.12.
Work on CTCGGATCTC yielded a switch fluorescence ratio of 1.05.
Sequence CTCGGCACTA has a switch fluorescence ratio of 3.31.
CTCGGCGTCA gave a switch fluorescence ratio of 1.02.
Sequence CTCGGCTAGC has a switch fluorescence ratio of 1.71.
Sequence CTCGGGAAGG has a switch fluorescence ratio of 1.03.
With CTCGGTAT the switch fluorescence ratio was 0.983.
CTCGGTGATG gave a switch fluorescence ratio of 0.921.
In the case of CTCGTACGGG, the switch fluorescence ratio is reported as 0.988.
Sequence CTCGTGTTTT has a switch fluorescence ratio of 0.952.
In the case of CTCGTTTAAG, the switch fluorescence ratio is reported as 0.999.
CTCTAACTGA gave a switch fluorescence ratio of 1.02.
Sequence CTCTAAGGCC has a switch fluorescence ratio of 0.995.
Sequence CTCTACCCCT has a switch fluorescence ratio of 1.12.
In the case of CTCTATTGCC, the switch fluorescence ratio is reported as 0.948.
CTCTCTGGTG gave a switch fluorescence ratio of 1.74.
CTCTCTTT was tested, and the switch fluorescence ratio was 1.01.
Work on CTCTGAGCTG yielded a switch fluorescence ratio of 1.08.
Sequence CTCTGAGTCA has a switch fluorescence ratio of 1.02.
For CTCTGCCCCT, the switch fluorescence ratio was 1.2.
CTCTGGACGC showed a switch fluorescence ratio of 1.17.
CTCTGGCG gave a switch fluorescence ratio of 0.994.
CTCTGTAATT gave a switch fluorescence ratio of 2.1.

Source: the supplement of paper PMC10126150
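Also: ATP exposure 15 min at 22 °C before imaging.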
